# The other results are listed elsewhere or left out.
# B1: SJA (Sophora japonica) (protein)
# chain: FLGLFNSGGYSSSYQIVAVEFDTYINEWDPKTRHIGIDINSINSTKTVTWGWENGEVAIVLISYKAATETLTVSLTYPSSQTSYILSAAVDLKSILPEWVRIGF
# Experiments:
# Assay in all cases: glycan array binding signal (z-score within array); higher = stronger binding
# Conditions in all cases: glycan notation: IUPAC condensed, linker removed
# [1] = molecular target: Neu5Ac(a2-6)Gal(b1-4)GlcNAc(b1-3)Gal(b1-4)GlcNAc(b1-6)[Gal(b1-3)]GalNAc
# How it was run: (§1)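 Negative Z-scores can be read as non-binding. The Z-score is calculated within each array and then averaged across arrays of one protein sequence at different concentrations or buffers and across linkers. Arrays, 3228 in all, were curated from the Consortium for Functional Glycomics database and kept only where the protein sequence was available.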
# [2] = molecular target: Neu5Ac(a2-6)Gal(b1-4)GlcNAc(b1-3)Gal(b1-4)[Fuc(a1-3)]GlcNAc(b1-3)Gal(b1-4)[Fuc(a1-3)]GlcNAc
# How it was run: as §1
# [3] = molecular target: Neu5Ac(a2-6)Gal(b1-4)GlcNAc(b1-3)GalNAc
# How it was run: as §1
# [4] = molecular target: Neu5Ac(a2-6)Gal(b1-4)GlcNAc(b1-3)[Neu5Ac(a2-6)Gal(b1-4)GlcNAc(b1-6)]GalNAc
# How it was run: as §1
# [5] = molecular target: Neu5Ac(a2-6)Gal(b1-4)GlcNAc(b1-6)GalNAc
# How it was run: as §1
# [6] = molecular target: Neu5Ac(a2-6)Gal(b1-4)GlcNAc(b1-6)[Gal(b1-3)GlcNAc(b1-3)]Gal(b1-4)Glc
# How it was run: as §1
# [7] = molecular target: Neu5Ac(a2-6)Gal(b1-4)GlcNAc(b1-6)[Gal(b1-3)]GalNAc
# How it was run: as §1
# [8] = molecular target: Neu5Ac(a2-6)Gal(b1-4)GlcNAc6S
# How it was run: as §1
# [9] = molecular target: Neu5Ac(a2-6)GalNAc
# How it was run: as §1
# [10] = molecular target: Neu5Ac(a2-6)GalNAc(b1-4)GlcNAc
# How it was run: as §1
# [11] = molecular target: Neu5Ac(a2-6)GalNAc(b1-4)GlcNAc6S
# How it was run: as §1
# [12] = molecular target: Neu5Ac(a2-6)GlcNAc(b1-4)GlcNAc
# How it was run: as §1
# [13] = molecular target: Neu5Ac(a2-6)GlcNAc(b1-4)GlcNAc(b1-4)GlcNAc
# How it was run: as §1
# [14] = molecular target: Neu5Ac(a2-8)Neu5Ac
# How it was run: as §1
# [15] = molecular target: Neu5Ac(a2-8)Neu5Ac(a2-3)Gal(b1-3)GalNAc(b1-4)[Neu5Ac(a2-3)]Gal(b1-4)Glc
# How it was run: as §1
# [16] = molecular target: Neu5Ac(a2-8)Neu5Ac(a2-3)Gal(b1-3)GalNAc(b1-4)[Neu5Ac(a2-8)Neu5Ac(a2-3)]Gal(b1-4)Glc
# How it was run: as §1
# [17] = molecular target: Neu5Ac(a2-8)Neu5Ac(a2-3)Gal(b1-4)Glc
# How it was run: as §1
# [18] = molecular target: Neu5Ac(a2-8)Neu5Ac(a2-3)Gal(b1-4)GlcNAc
# How it was run: as §1
# [19] = molecular target: Neu5Ac(a2-8)Neu5Ac(a2-3)[Gal(b1-3)GalNAc(b1-4)]Gal(b1-4)Glc
# How it was run: as §1
# [20] = molecular target: Neu5Ac(a2-8)Neu5Ac(a2-3)[GalNAc(b1-4)]Gal(b1-4)Glc
# How it was run: as §1
# [21] = molecular target: Neu5Ac(a2-8)Neu5Ac(a2-8)Neu5Ac
# How it was run: as §1
# [22] = molecular target: Neu5Ac(a2-8)Neu5Ac(a2-8)Neu5Ac(a2-3)Gal(b1-4)Glc
# How it was run: as §1
# [23] = molecular target: Neu5Ac(a2-8)Neu5Ac(a2-8)Neu5Ac(a2-3)[Gal(b1-3)GalNAc(b1-4)]Gal(b1-4)Glc
# How it was run: as §1
# [24] = molecular target: Neu5Ac(a2-8)Neu5Ac(a2-8)Neu5Ac(a2-3)[GalNAc(b1-4)]Gal(b1-4)Glc
# How it was run: as §1
# [25] = molecular target: Neu5Ac(a2-8)Neu5Ac(a2-8)Neu5Ac(a2-8)Neu5Ac(a2-3)[GalNAc(b1-4)]Gal(b1-4)Glc
# How it was run: as §1
# [26] = molecular target: Neu5Ac(a2-8)Neu5Gc(a2-3)Gal(b1-4)GlcNAc
# How it was run: as §1
# [27] = molecular target: Neu5Ac(b1-6)GalNAc
# How it was run: as §1
# [28] = molecular target: Neu5Ac(b2-6)Gal(b1-4)GlcNAc
# How it was run: as §1
# [29] = molecular target: Neu5Ac(b2-6)GalNAc
# How it was run: as §1
# [30] = molecular target: Neu5Ac9Ac(a2-3)Gal(b1-3)GlcNAc
# How it was run: as §1
# [31] = molecular target: Neu5Ac9Ac(a2-3)Gal(b1-4)GlcNAc
# How it was run: as §1
# [32] = molecular target: Neu5Ac9Ac(a2-6)Gal(b1-4)GlcNAc
# How it was run: as §1
# [33] = molecular target: Neu5Gc(a2-3)Gal(b1-3)GlcNAc
# How it was run: as §1
# [34] = molecular target: Neu5Gc(a2-3)Gal(b1-3)[Fuc(a1-4)]GlcNAc
# How it was run: as §1
# [35] = molecular target: Neu5Gc(a2-3)Gal(b1-4)Glc
# How it was run: as §1
# [36] = molecular target: Neu5Gc(a2-3)Gal(b1-4)GlcNAc
# How it was run: as §1
# [37] = molecular target: Neu5Gc(a2-3)Gal(b1-4)GlcNAc(b1-3)Gal(b1-4)GlcNAc(b1-2)Man(a1-3)[Neu5Gc(a2-3)Gal(b1-4)GlcNAc(b1-3)Gal(b1-4)GlcNAc(b1-2)Man(a1-6)]Man(b1-4)GlcNAc(b1-4)GlcNAc
# How it was run: as §1
# [38] = molecular target: Neu5Gc(a2-3)Gal(b1-4)[Fuc(a1-3)]GlcNAc
# How it was run: as §1
# [39] = molecular target: Neu5Gc(a2-6)Gal(b1-4)GlcNAc
# How it was run: as §1
# [40] = molecular target: Neu5Gc(a2-6)GalNAc
# How it was run: as §1
# [41] = molecular target: Neu5Gc(a2-8)Neu5Ac(a2-3)Gal(b1-4)GlcNAc
# How it was run: as §1
# [42] = molecular target: Neu5Gc(a2-8)Neu5Gc(a2-3)Gal(b1-4)GlcNAc
# How it was run: as §1
# [43] = molecular target: Neu5Gc(a2-8)Neu5Gc(a2-3)Gal(b1-4)GlcNAc(b1-3)Gal(b1-4)GlcNAc
# How it was run: as §1
# [44] = molecular target: Neu5Gc(a2-8)Neu5Gc(a2-6)Gal(b1-4)GlcNAc
# How it was run: as §1
# [45] = molecular target: Neu5Gc(b2-6)Gal(b1-4)GlcNAc
# How it was run: as §1
binder,measurement,setting,value
B1,glycan array binding signal (z-score),[1],-0.02
same,glycan array binding signal (z-score),[2],-0.009
same,glycan array binding signal (z-score),[3],-0.265
same,glycan array binding signal (z-score),[4],-0.282
same,glycan array binding signal (z-score),[5],-0.006
same,glycan array binding signal (z-score),[6],-0.317
same,glycan array binding signal (z-score),[7],-0.166
same,glycan array binding signal (z-score),[8],-0.268
same,glycan array binding signal (z-score),[9],-0.109
same,glycan array binding signal (z-score),[10],-0.214
same,glycan array binding signal (z-score),[11],-0.304
same,glycan array binding signal (z-score),[12],-0.296
same,glycan array binding signal (z-score),[13],-0.288
same,glycan array binding signal (z-score),[14],-0.036
same,glycan array binding signal (z-score),[15],-0.054
same,glycan array binding signal (z-score),[16],-0.434
same,glycan array binding signal (z-score),[17],-0.292
same,glycan array binding signal (z-score),[18],-0.378
same,glycan array binding signal (z-score),[19],-0.258
same,glycan array binding signal (z-score),[20],-0.232
same,glycan array binding signal (z-score),[21],-0.169
same,glycan array binding signal (z-score),[22],-0.161
same,glycan array binding signal (z-score),[23],0.164
same,glycan array binding signal (z-score),[24],-0.064
same,glycan array binding signal (z-score),[25],-0.262
same,glycan array binding signal (z-score),[26],-0.348
same,glycan array binding signal (z-score),[27],-0.178
same,glycan array binding signal (z-score),[28],-0.225
same,glycan array binding signal (z-score),[29],-0.162
same,glycan array binding signal (z-score),[30],-0.234
same,glycan array binding signal (z-score),[31],0.503
same,glycan array binding signal (z-score),[32],-0.279
same,glycan array binding signal (z-score),[33],-0.168
same,glycan array binding signal (z-score),[34],-0.281
same,glycan array binding signal (z-score),[35],-0.319
same,glycan array binding signal (z-score),[36],-0.285
same,glycan array binding signal (z-score),[37],-0.097
same,glycan array binding signal (z-score),[38],-0.144
same,glycan array binding signal (z-score),[39],-0.138
same,glycan array binding signal (z-score),[40],-0.241
same,glycan array binding signal (z-score),[41],-0.144
same,glycan array binding signal (z-score),[42],-0.298
same,glycan array binding signal (z-score),[43],-0.25
same,glycan array binding signal (z-score),[44],-0.244
same,glycan array binding signal (z-score),[45],-0.211

# From the supplement of paper PMC8728848
